# Reference: PubChem BioAssay
# Inconclusive results, whose numbers are uncertain, are shown with a selection of clear calls. Calls of active or inactive are those of the source.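 How the source made its calls: active means viability at or below 27.92% in each of two runs, the all-compound median minus 4 SD; inconclusive means no clear call, values can overlap the other calls; inactive means the rest.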
# Assay: viability of PTEN-null HCT116 cells – cell-based, HCT116 clonal line, CellTiter-Glo, pilot screen (AID 824);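 further: 0% = 20 µM Hyamine control and 100% = vehicle cell control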
# Conditions: HCT116 PTEN-deleted viability, 60 h, at 10 µM, stronger effect = lower value
row,SMILES,viability
1,Cc1ccc(C)c(N2CCN(CCCNC(=O)Cn3cc4c(n3)CCCCC4)CC2)c1,active: 19.6%
2,Cn1c(NC(=O)c2ccccc2NC(=O)C(C)(C)C)nc2ccccc21,inactive: 55.1%
3,COC(=O)c1nc2n(n1)C(c1ccc(OC)c(OC)c1)C(C(=O)OC1CCCCC1)=C(C)N2 (stereo not drawn),inconclusive: 89%
